Source: paper PMC5540273 (PLoS ONE, 2017)
For some of these results: Shown are results outside the selection of strong results, which stands elsewhere. The list shows a part of the results, in another mix than the full data.

Experiments:
Conditions in all cases: concentration: 1 μM,replicates: in singlicate; n = 1
NEK9 = tested on: NEK9
NIK = tested on: T1, NIK
T1 construct: gene MAP3K14

NIM1 = tested on: T2, NIM1
T2 construct: gene MGC42105

NLK = tested on: NLK
OSR1 = tested on: T3, OSR1
T3 construct: gene OXSR1

PAK1 = tested on: PAK1
PAK2 = tested on: PAK2
PAK3 = tested on: PAK3
PAK4 = tested on: PAK4
PAK6 = tested on: PAK6
PAK7 = tested on: PAK7
PCTK1 = tested on: T4, PCTK1
T4 construct: gene CDK16

PCTK2 = tested on: T5, PCTK2
T5 construct: gene CDK17

PCTK3 = tested on: T6, PCTK3
T6 construct: gene CDK18

PDGFRA = tested on: PDGFRA
PDGFRB = tested on: PDGFRB
PDPK1 = tested on: PDPK1
PFTAIRE2 = tested on: PFTAIRE2
PFTK1 = tested on: T7, PFTK1
T7 construct: gene CDK14

PHKG1 = tested on: PHKG1
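Further: KINOMEscan kinase panel screen.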

| Compound | %Inh (NEK9) [%] | %Inh (NIK) [%] | %Inh (NIM1) [%] | %Inh (NLK) [%] | %Inh (OSR1) [%] | %Inh (PAK1) [%] | %Inh (PAK2) [%] | %Inh (PAK3) [%] | %Inh (PAK4) [%] | %Inh (PAK6) [%] | %Inh (PAK7) [%] | %Inh (PCTK1) [%] | %Inh (PCTK2) [%] | %Inh (PCTK3) [%] | %Inh (PDGFRA) [%] | %Inh (PDGFRB) [%] | %Inh (PDPK1) [%] | %Inh (PFTAIRE2) [%] | %Inh (PFTK1) [%] | %Inh (PHKG1) [%] |
| --- | --- | --- | --- | --- | --- | --- | --- | --- | --- | --- | --- | --- | --- | --- | --- | --- | --- | --- | --- | --- |
| O=C1NC(=O)C(c2ccc(Cl)cc2)=C1Nc1ccccc1 [SB-317661] | 0 | 36 | 44 | 0 | 10 | 8 | 3 | 0 | 5 | 0 | 0 | 2 | 0 | 0 | 0 | 0 | 0 | 2 | 15 | 2 |
| CSc1ccc(NC2=C(c3cccc(Cl)c3)C(=O)NC2=O)cc1 [SB-341528] | 0 | 0 | 0 | 0 | 0 | 0 | 30 | 1 | 0 | 0 | 2 | 0 | 3 | 13 | 2 | 1 | 4 | 0 | 0 | 8 |
| O=C(O)c1ccc(-c2nc(-c3ccc(F)cc3)c(-c3ccncc3)[nH]2)cc1 [SB-202620] | 0 | 0 | 0 | 88 | 0 | 0 | 24 | 21 | 2 | 0 | 15 | 0 | 0 | 0 | 0 | 23 | 0 | 0 | 0 | 13 |
| O=C1NC(=O)C(c2ccccc2Cl)=C1Nc1cccc(C(=O)O)c1 [SB-390526] | 26 | 0 | 7 | 0 | 34 | 0 | 0 | 0 | 0 | 0 | 0 | 0 | 12 | 8 | 13 | 6 | 0 | 17 | 11 | 0 |
| O=C1NC(=O)C(c2ccc(Cl)cc2)=C1Nc1ccc(O)c(Cl)c1 [SB-405367] | 0 | 0 | 0 | 0 | 5 | 1 | 15 | 0 | 0 | 5 | 0 | 0 | 89 | 0 | 0 | 0 | 26 | 0 | 0 | 7 |
| COc1cccc(C2=C(Nc3ccc(SC)cc3)C(=O)NC2=O)c1 [SB-331032] | 0 | 13 | 22 | 11 | 20 | 18 | 35 | 38 | 12 | 0 | 12 | 17 | 0 | 0 | 28 | 0 | 0 | 0 | 4 | 7 |
| O=C1NC(=O)C(c2ccccc2Cl)=C1Nc1ccccc1 [SB-376715] | 14 | 0 | 1 | 0 | 3 | 17 | 0 | 0 | 0 | 0 | 11 | 14 | 0 | 4 | 0 | 0 | 3 | 8 | 1 | 7 |
| CS(=O)(=O)c1ccccc1-c1nc(-c2ccc(F)cc2)c(-c2ccncc2)[nH]1 [SB-213663] | 0 | 0 | 21 | 78 | 0 | 0 | 3 | 33 | 24 | 6 | 31 | 9 | 0 | 0 | 11 | 5 | 0 | 2 | 0 | 0 |
| Cc1cc(C)cc(Oc2nccc(-c3c(-c4ccc(F)cc4)ncn3C3CCNCC3)n2)c1.O=C(O)C(F)(F)F.O=C(O)C(F)(F)F.O=C(O)C(F)(F)F [SB-284851] | 0 | 0 | 4 | 23 | 0 | 0 | 0 | 0 | 4 | 16 | 0 | 0 | 0 | 0 | 0 | 0 | 14 | 0 | 0 | 0 |
| COc1ccc(C2=C(Nc3cccc(Cl)c3)C(=O)NC2=O)cc1 [SB-326892] | 0 | 32 | 16 | 0 | 0 | 0 | 10 | 22 | 0 | 0 | 2 | 0 | 2 | 0 | 0 | 9 | 0 | 0 | 0 | 0 |
| O=C1NC(=O)C(c2ccc(Cl)cc2)=C1Nc1cccc(C(=O)O)c1 [SB-360737] | 0 | 0 | 25 | 25 | 7 | 4 | 0 | 11 | 0 | 0 | 0 | 8 | 0 | 0 | 6 | 0 | 0 | 13 | 0 | 0 |
| O=C1NC(=O)C(c2ccccc2)=C1Nc1ccc(Cl)c(C(=O)O)c1 [SB-390532] | 36 | 0 | 33 | 29 | 0 | 19 | 21 | 0 | 0 | 0 | 0 | 0 | 0 | 7 | 0 | 0 | 0 | 11 | 15 | 0 |
| O=C1NC(=O)C(c2ccccc2)=C1Nc1cc(Cl)c(O)c(Cl)c1 [SB-390530] | 0 | 22 | 0 | 0 | 0 | 0 | 11 | 0 | 4 | 0 | 0 | 0 | 0 | 16 | 21 | 3 | 0 | 0 | 10 | 0 |
| Cc1ccc(C)c(Oc2nccc(-c3c(-c4ccc(F)cc4)ncn3C3CCNCC3)n2)c1.O=C(O)C(F)(F)F.O=C(O)C(F)(F)F.O=C(O)C(F)(F)F [SB-284852] | 0 | 0 | 0 | 49 | 0 | 0 | 2 | 0 | 0 | 2 | 0 | 0 | 3 | 0 | 0 | 0 | 4 | 7 | 0 | 0 |
| O=C1NC(=O)C(c2ccc(Cl)cc2)=C1Nc1cccc(O)c1 [SB-333613] | 0 | 26 | 43 | 5 | 22 | 28 | 29 | 2 | 19 | 1 | 3 | 12 | 0 | 5 | 29 | 0 | 10 | 0 | 11 | 0 |
| O=C1NC(=O)c2c1c(-c1ccccc1)cc1[nH]c3ccc(O)cc3c21 | 22 | 24 | 96.1 | 8 | 20 | 1 | 21 | 74 | 12 | 2 | 0 | 29 | 4 | 28 | 49 |  | 90.7 | 9 | 12 | 53 |
